Experimental data from PubChem BioAssay AID588855 (National Center for Advancing Translational Sciences (NCATS), 2011).
The campaign covered roughly 410,000 compounds. About 5,000 (1.2%) were called active. Inconclusive means that the source gave no clear call. Such entries were picked first, then a sample of the others. Calls follow the shape of the dose curve; as a rule, active = well fitted inhibition curve with a large enough effect; inconclusive = small, poorly fitted or top-dose-only effect; inactive = no such curve, though single readings can be large or run the other way. Potencies of inconclusive entries are doubtful fits and often do not repeat.

Experiment: qHTS for Inhibitors of TGF-b; also: nearly all actives have a fitted effect of over 65% in size
Conditions: HepG2 CAGA-GFP TGF-b/SMAD3 reporter, GFP fluorescence, 18 h, TGF-beta stimulated, 500 pg/mL final; series mostly up to 46.1 µM
Summary of the method: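 HEPG2 CAGA-GFP cells (1000/well, DMEM with 1% FBS) were pre-incubated 2 h at 37 degrees C, given compound by pin tool, then stimulated with TGF-beta at 500 pg/mL final for 18 h before per-cell GFP fluorescence imaging.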
Potency is read from the fitted curve at half-maximal effect; tags tell the direction and shape of the fitted curve.

| Compound | Potency |
| --- | --- |
| CCN1CCN(c2sc(S(C)(=O)=O)nc2S(=O)(=O)c2ccc(C)cc2)CC1 | inconclusive: 1.41 µM [inhibitor, full curve, poor fit] |
| Cc1nn2c(N)c(-c3ccccc3)cnc2c1-c1ccc(Cl)cc1 | inconclusive: 35.5 µM [inhibitor, partial curve, poor fit] |
| Cc1ccc(NC(=O)c2ncn(CCCN3CCN(c4ccccn4)CC3)n2)cc1C | inconclusive: 35.5 µM [inhibitor, single point] |
| Cc1cccc(OCCCC(=O)NC(C)C)c1 | inconclusive: 15.8 µM [inhibitor, partial curve, poor fit] |
| Cc1ccc(C2=C(O)C(=O)C(c3ccc(C)cc3)=C(O)C2=O)cc1 | inactive |
| N#Cc1ccccc1NC(=O)c1ccc2c(Cl)c3c(nc2c1)CCCC3 | inconclusive: 2.82 µM [inhibitor, single point] |
| Cc1ccc(N2CCN(C(=O)c3cccs3)CC2)cc1C | inactive |
| O=C(Nc1nc(-c2ccccc2)cs1)c1cccc([N+](=O)[O-])c1 | inconclusive: 35.5 µM [inhibitor, single point] |
| Cc1ccc(NC(=O)c2sc(N)nc2C)cc1 | inactive |
| CN(C)c1ccc(N=Nc2ccccc2C(=O)OCC(=O)N2CCCC2)cc1 | inconclusive: 10 µM [inhibitor, partial curve, poor fit] |
| CCCNC(=O)c1c(C)nn(-c2cccc(C)c2)c1-n1cccc1 | inconclusive: 7.08 µM [inhibitor, partial curve, poor fit] |
| Cc1ccc(C(O)(c2ccccc2)c2ccccc2C(C)N(C)C)c(C)c1 (stereo not drawn) | inconclusive: 22.4 µM [inhibitor, single point] |
| CCN(CC)c1ccc(NC(=O)CCNS(=O)(=O)c2ccc3c(c2)CCC(=O)N3)c(C)c1 | inactive |
| Cc1nc(-c2cccnc2)sc1C(=O)N/N=C/c1ccccc1Cl | inconclusive: 35.5 µM [inhibitor, single point] |
| CCc1nn(C(C)C(=O)N2CCN(c3cccc(C(F)(F)F)c3)CC2)c(=O)c2cc3occc3n12 (stereo not drawn) | inactive |
| O=S1(=O)C=C[C@@H](COCc2ccccc2)N1Cc1ccc(Br)cc1 | inconclusive: 20 µM [inhibitor, single point] |
| Cn1c(=O)c2c(nc(N3CCN(c4ccccc4)CC3)n2CCCc2ccccc2)n(C)c1=O | inconclusive: 0.447 µM [inhibitor, partial curve, poor fit] |
| COc1ccc(CNC(=O)Nc2nnc([C@@H]3C[C@H](O)[C@@H](CO)O3)s2)cc1 | inactive |
| Cn1ncc2c(=O)n(CC(=O)NC34CC5CC(CC(C5)C3)C4)cnc21 | inconclusive: 35.5 µM [inhibitor, single point] |
| O=C(NCCc1ccccc1)C1(c2cccs2)CCOCC1 | inactive |
| CCc1ccc(C2c3[nH]c4ccccc4c3CCN2C(=O)CN2CCN(CC)CC2)cc1 (stereo not drawn) | inconclusive: 35.5 µM [inhibitor, single point] |
| O=C(NCCc1ccccc1Cl)c1ccc2c(c1)nc1n2CCOC1 | inconclusive: 12.6 µM [inhibitor, partial curve, poor fit] |

| Compound | Potency |
| --- | --- |
| O=C(CSc1nnc(-c2ccccc2)n1-c1ccccc1)c1cccs1 | inactive |
| Cc1cccc(NC(=O)CSc2n[nH]c(-c3ccncc3)n2)c1C | inconclusive: 35.5 µM [inhibitor, single point] |
| Cc1ccc(NC(=O)CN(C)Cc2c(O)ccc3ccccc23)cc1 | inconclusive: 35.5 µM [inhibitor, single point] |
| CC(=O)c1sc(-c2ccccc2)cc1NS(=O)(=O)c1ccc(C)cc1 | inconclusive: 35.5 µM [inhibitor, single point] |
| C=CCn1c(-c2csc3c2CCC(C)C3)n[nH]c1=S (stereo not drawn) | inconclusive: 35.5 µM [inhibitor, partial curve, poor fit] |
| Cc1cc(NC(=O)C(C)SCC(=O)Nc2cccc(S(=O)(=O)N3CCCCCC3)c2)no1 (stereo not drawn) | inconclusive: 35.5 µM [inhibitor, single point] |
| O=C(C1=C[C@H](c2ccc(C(F)(F)F)cc2)C[C@H](OCCCCO)O1)N1CCN(Cc2ccccc2)CC1 | inconclusive: 25.1 µM [inhibitor, single point] |
| O=c1cc(CN2CCN(c3cccc(C(F)(F)F)c3)CC2)nc2sccn12 | inactive |
| C#CCOc1ccc(/C=C2/C(=O)ON=C2C)cc1Br | inactive |
| C[C@H](CO)N1C[C@H](C)[C@@H](CN(C)Cc2ccc3cccnc3c2)OCc2cnnn2CCCC1=O | inactive |
| Cc1nc2sc(C#N)c(N)c2c2c1CCCC2 | inconclusive: 2.24 µM [inhibitor, partial curve, poor fit] |
| Cc1cccc(/C=N/n2c(C3CCCCC3)n[nH]c2=S)c1 | inconclusive: 22.4 µM [inhibitor, single point] |
| O=C(/C=C/c1ccc(F)cc1)NC(=S)N1CCN(Cc2ccccc2)CC1 | inactive |
| COc1ccccc1-c1nn(Cc2ccccc2)cc1C(=O)NCC(c1ccco1)N1CCCC1 (stereo not drawn) | inactive |
| COc1ccccc1C(=O)N(CCN(C)C)c1nc2cc(C)cc(C)c2s1 | inconclusive: 15.8 µM [inhibitor, single point] |
| Cc1ccc(-n2ncc(C(=O)NCCc3ccccc3)c2C2CCN(C(=O)OC(C)(C)C)CC2)c(C)c1 | inconclusive: 35.5 µM [inhibitor, single point] |
| CCCS(=O)(=O)NC(=O)C1(C)CCCN(C(=O)c2cccc(Cl)c2)C1 (stereo not drawn) | inactive |
| CC(C)(C)C(=O)N/C(N)=N/c1nc2ccccc2o1 | inactive |
| CCc1nc2ccc(C(=O)Nc3cccc(NS(C)(=O)=O)c3)cn2c1N(C)CCCc1ccccc1 | inconclusive: 35.5 µM [inhibitor, single point] |
| CCN(CC)c1nc2c(-c3cccc(Br)c3)nnn2c2ccccc12 | inconclusive: 35.5 µM [inhibitor, single point] |
| CC(C)n1cnc2c(N(C)c3ccccc3)nc(N(CCN(C)C)Cc3ccccc3)nc21 | inconclusive: 22.4 µM [inhibitor, single point] |
